The target in the assay is T1, β3 subunit of the crystallized αIIbβ3 headpiece (UniProt P05106 27-497).
T1 construct: integrin β3 subunit, headpiece portion; as the β3 chain of m3; The β3 chain of m3, written alone for the pairs within the structures; also called β-subunit; source: recombinant; not shown: α-helical coiled-coil, C-terminal, cleaved
T1 sequence: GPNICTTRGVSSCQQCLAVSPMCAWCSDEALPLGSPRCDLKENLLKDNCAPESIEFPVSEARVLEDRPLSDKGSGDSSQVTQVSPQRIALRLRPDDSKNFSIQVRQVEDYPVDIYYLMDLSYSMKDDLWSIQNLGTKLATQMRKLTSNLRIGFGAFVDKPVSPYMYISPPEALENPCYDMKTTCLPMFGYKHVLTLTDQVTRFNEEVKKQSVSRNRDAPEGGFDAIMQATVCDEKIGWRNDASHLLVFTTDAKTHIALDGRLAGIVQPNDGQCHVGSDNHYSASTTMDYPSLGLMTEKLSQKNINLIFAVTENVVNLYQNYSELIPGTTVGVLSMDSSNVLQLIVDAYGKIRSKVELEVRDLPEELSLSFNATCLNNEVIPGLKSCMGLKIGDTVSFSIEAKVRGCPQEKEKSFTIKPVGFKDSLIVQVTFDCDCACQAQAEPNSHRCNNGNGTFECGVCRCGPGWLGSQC
Kind of assay: crystal structure; closed αIIbβ3 headpiece-10E5 Fab crystals soaked with 50 mM peptide for 2 h or 1 week at 4 °C in Mn/Ca; 15% PEG 8000, 0.2 M ammonium sulfate, 0.1 M Tris-HCl, pH 8.9, 20% glycerol. Conditions: both partners purified.

B1: αIIb subunit of the crystallized αIIbβ3 headpiece (domain or fragment)
chain: not shown
notes: integrin αIIb subunit, headpiece with the thigh domain removed; as the αIIb chain of m3; The αIIb chain of m3, written alone for the pair of the two subunits in the structures; also called α-subunit; source: recombinant; not shown: α-helical coiled-coil, C-terminal, cleaved
For the molecule B1, the binding result was “binds”.

The record behind these values is PMC4813479 (The Journal of Biological Chemistry, 2015).
